Hit rate of the full screen: of about 110,000 compounds, about 230 (0.21%) showed an effect of 50% or more. The list shows a part of the results.
molecular target: DPAP1 (Plasmodium falciparum, UniProt Q8IIJ9); assay: primary screen, percent inhibition; read by cleavage of a fluorogenic dipeptide substrate; higher = more effect of the substance; parameters: species or system P. falciparum D10 trophozoite lysates; single well
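Note: 30 min substrate incubation versus DMSO and 10 µM JCP410 controls.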

DPAP1, sequence (Q8IIJ9 whole entry, looked up): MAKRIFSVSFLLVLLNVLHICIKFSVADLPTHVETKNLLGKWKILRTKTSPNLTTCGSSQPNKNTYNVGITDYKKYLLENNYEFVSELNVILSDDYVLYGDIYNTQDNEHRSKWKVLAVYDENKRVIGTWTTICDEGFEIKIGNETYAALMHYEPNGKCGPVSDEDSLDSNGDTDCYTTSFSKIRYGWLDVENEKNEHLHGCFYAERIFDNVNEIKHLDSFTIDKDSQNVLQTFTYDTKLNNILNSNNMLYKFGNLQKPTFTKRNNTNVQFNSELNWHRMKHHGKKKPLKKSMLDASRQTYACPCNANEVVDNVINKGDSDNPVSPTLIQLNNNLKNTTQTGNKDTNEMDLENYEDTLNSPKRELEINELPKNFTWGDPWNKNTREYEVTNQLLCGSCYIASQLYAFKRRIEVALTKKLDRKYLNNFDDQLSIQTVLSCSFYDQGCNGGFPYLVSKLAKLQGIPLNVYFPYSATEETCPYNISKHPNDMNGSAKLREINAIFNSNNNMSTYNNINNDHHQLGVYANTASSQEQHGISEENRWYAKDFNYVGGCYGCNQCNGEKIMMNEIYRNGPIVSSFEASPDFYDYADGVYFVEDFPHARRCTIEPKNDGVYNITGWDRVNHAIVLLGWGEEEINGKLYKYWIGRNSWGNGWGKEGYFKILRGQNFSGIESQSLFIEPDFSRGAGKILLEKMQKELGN

Structure (SMILES)	% Inhibition @ 10 uM
CC(=O)Nc1ccc(S(=O)(=O)NC(C)c2ccccc2)cc1 (stereo not shown)	-4.05%
C=CCN1C(=O)S/C(=C/c2cc(C)n(-c3ccc(C#N)cc3)c2C)C1=O	6.42%
Cc1cc(=O)oc2cc3c(cc12)OCO3	2.94%
Cc1cc(C)c2c(n1)nn1c(C)c(CCC(=O)N3CCCCCC3)c(C)nc21	-0.72%
O=C(COc1ccccc1Cl)N(Cc1ccccc1F)C1CCS(=O)(=O)C1 (stereo not shown)	2.02%
COc1cccc(S(=O)(=O)NCC(=O)N2CCCCCC2)c1	2.48%
CSc1ncc(C(=O)NCCCN(C)Cc2ccccc2)c(-c2ccccc2)n1	2.25%
Cc1ccc(CNCCCSc2nnnn2C)cc1	-6.6%
O=C(CSc1nc2ccccc2o1)Nc1ccccc1Br	-18.1%
c1ccc2c(c1)nc1n2CN(CCN2CCOCC2)CN1	0.032%
Cc1cc(C)c2nc(N3CCC(C(=O)NCCCN(C)C4CCCCC4)CC3)sc2c1	0.137%
CCOC(=O)c1c(NC(=O)Cc2ccc(OCC)c(OCC)c2)sc2c1CCC2	-1.24%
O=C1c2ccccc2-c2nc(=O)c3c4c(sc3n21)CCCC4	4.6%
Cc1ccc(-c2cc(NC(=O)c3oc4ccccc4c3C)on2)cc1	-1.47%
Cc1sc2c(c1C)c(=O)n(Cc1ccccc1)c(=O)n2Cc1ccccc1F	9.94%
CC(C)(C)c1ccc(-c2nn3c(Cn4nnc5ccccc54)nnc3s2)cc1	7.31%
CN(CCc1ccccn1)Cc1ccc(Br)cc1	-3.44%
C=CCOc1ccc2c(=O)c(Oc3ccc(C)cc3)coc2c1	1.88%
COc1ccc(NC(=O)Cn2cnc3scc(-c4ccc(OC)c(OC)c4)c3c2=O)cc1	-3.41%
O=C(c1ccc(N2C(=O)c3ccccc3C2=O)cc1)N1CCCC1	1.48%
COc1cc(NC(=O)COc2ccc(Cl)cc2C)c(OC)cc1Cl	2.6%
Cc1ccc(S(=O)(=O)N2CCC(C(=O)Nc3cccc(C(=O)O)c3)CC2)cc1	-6.68%
Clc1ccc(CN2CCN(c3ccc(Cl)cc3)CC2)cc1	4.73%
COc1ccccc1NC(=O)C(C#N)=C1CCCCCC1	4.67%
CN1C(=O)NC(=O)/C(=C/c2ccc(Br)o2)C1=O	3.06%
COC(=O)c1sccc1NC(=O)c1cc2ccc3cccnc3c2[nH]1	3.44%

Structure (SMILES)	% Inhibition @ 10 uM
COc1ccccc1NC(=O)C1=C(C)NC(SCC(N)=O)=C(C#N)C1c1ccccc1 (stereo not shown)	7.69%
COc1ccc(/C=C(\NC(=O)c2ccc(C)cc2)C(=O)NCCCC(=O)O)cc1	-1.52%
NC(=O)C1CCN(C(=O)C(=O)c2c[nH]c3ccccc23)CC1	-6.38%
CC(C)Cn1c(=O)c2ccccc2n2c(CCC(=O)N3CCN(C4CCCCC4)CC3)nnc12	4.16%
Cc1ccc(C(=O)N2CCN(c3ccc(NC(=O)C(C)(C)C)cc3)CC2)cc1	-6.48%
Cc1cc(NC(=O)CSc2nc(-c3cccs3)cc(C(F)(F)F)n2)no1	1.39%
Cc1ccc(CNC(=O)c2ccc(C)o2)cc1	0.843%
CN(C)CC(O)COc1ccccc1 (stereo not shown)	-3.65%
COc1cccc(-c2cc(C(F)(F)F)nc(N3CCC(C)CC3)n2)c1	-1.31%
CC(=O)Nc1ccc(NC(=O)c2ccc(-c3ccc(Cl)c(Cl)c3)o2)cc1	-4.7%
CCOC(=O)C1CCN(Cc2ccc(F)cc2F)CC1	-5.57%
CC1C(=O)CCC1(C(=O)O)c1ccccc1 (stereo not shown)	5.73%
O=C(CCCNS(=O)(=O)c1cccs1)NCc1ccccc1	-1.31%
Cc1ccccc1Cn1c(CN(C)Cc2ccccc2)nc2c1c(=O)n(C)c(=O)n2C	-0.499%
O=C(/C=C/c1ccc(Cl)cc1)Nc1nccs1	18%
CSc1[nH]nc(N)c1S(=O)(=O)c1ccccc1	-6.08%
COc1ccc(C2=NN(S(C)(=O)=O)C(c3ccco3)C2)cc1 (stereo not shown)	2.6%
CCOc1ccc2nc(SCc3c(Cl)cccc3Cl)sc2c1	-7.54%
O=S(=O)(O)c1ccc(O)c2ncccc12	1.7%
CCOC(=O)C1=C(c2ccccc2)N(C)C(=O)NC1c1ccc(O)c(OC)c1 (stereo not shown)	1.13%
CC(CCc1ccccc1)NCCN1CCCCC1 (stereo not shown)	-5.44%
O=C(NCCN1CCOCC1)C1CC(c2ccc(F)cc2)=NO1 (stereo not shown)	-0.431%
C=C(CS(=O)(=O)c1ccc(C)cc1)C(=O)Nc1ccccc1	0.661%
CN1C2CCC1CC(N1CCN(Cc3ccccc3)CC1)C2 (stereo not shown)	-1.5%
CCOC(=O)N1C2C3C4C5C3C(C5C42)N1C(=O)OCC (stereo not shown)	-5.31%
CN1CCC/C1=N/c1cc(N(C)C)nc2ccccc12	-1.1%
